According to PubChem BioAssay AID624417 (National Center for Advancing Translational Sciences (NCATS), 2012):
Out of some 410,000 compounds screened, about 6,400 (1.6%) were called active. This list was built around the results that the source calls inconclusive (neither active nor inactive); the mix of calls is not that of the screen. The call rests on the fitted dose curve; in most records, active means well fitted inhibition curve with a large enough effect; inconclusive means small, poorly fitted or top-dose-only effect; inactive means no such curve, though single readings can be large or run the other way. Potencies of inconclusive entries are left out as doubtful fits.

target: Glucagon-like peptide 1 receptor (Homo sapiens) (UniProt P43220); assay: qHTS of GLP-1 Receptor Inverse Agonists (Inhibition Mode); details: HEK293 GLP-1R CRE-luciferase, luminescence, 24 h, GLP-1R form is constitutively active; activity change, negative = inhibition: at 38.3 µM (top of the series) unless noted; further: nearly all actives have a fitted effect of over 55% in size
Procedure, shortened: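 HEK293 cells stably co-expressing a cAMP-responsive luciferase reporter and constitutively active GLP-1R were seeded, incubated 12 h, then exposed to compounds for 24 h at 37 C. Luminescence was read 12 min after detection reagent; inverse agonists lower signal.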
On the % scale 0 is the no-effect control and ±100 the full control effect; potency means the concentration at half of the fitted maximal effect; tags describe the fitted curve by direction and shape.

Chain of UniProt P43220 (P43220 whole entry, looked up): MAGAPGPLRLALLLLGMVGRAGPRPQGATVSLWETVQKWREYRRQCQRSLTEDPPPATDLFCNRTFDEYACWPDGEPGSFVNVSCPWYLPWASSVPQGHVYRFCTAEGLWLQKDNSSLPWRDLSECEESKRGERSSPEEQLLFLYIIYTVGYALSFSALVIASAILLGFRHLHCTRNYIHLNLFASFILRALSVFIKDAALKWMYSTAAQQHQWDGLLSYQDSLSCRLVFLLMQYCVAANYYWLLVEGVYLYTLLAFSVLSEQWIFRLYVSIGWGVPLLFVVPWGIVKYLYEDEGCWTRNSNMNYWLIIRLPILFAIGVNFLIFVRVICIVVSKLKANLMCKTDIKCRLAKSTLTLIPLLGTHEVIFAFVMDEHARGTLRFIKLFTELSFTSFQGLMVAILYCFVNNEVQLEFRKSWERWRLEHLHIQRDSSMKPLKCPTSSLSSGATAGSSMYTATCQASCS

| Compound | activity change, negative = inhibition | Potency |
| --- | --- | --- |
| CCOC(=O)Cc1ccc(NC(=O)NCc2ccc3c(c2)CCN3C(=O)CC)cc1 | inactive: -3.11% | – |
| Cc1nc2ccc(C(=O)Nc3cccc(OCC(=O)N(C)C)c3)cn2c1N(C)CC1CCCCC1 | – | inconclusive [inhibitor, single point] |
| COc1ccc(NC(=O)CN(C)CC(=O)Nc2sc3c(c2C#N)CCC3)cc1 | – | inconclusive [inhibitor, partial curve, poor fit] |
| C=C(C(=O)c1ccccc1)C(C)CC(=O)c1ccccc1 (centres undefined) | – | active: 8.91 µM |
| Cc1ccc(/C(N)=N/OC(=O)C23CC4CC(CC(C4)C2)C3)cc1 | – | inconclusive [inhibitor, single point] |
| O=S(=O)(c1ccc(NCCOc2ccccc2)nc1)N1CCCC1 | inactive: 1.93% | – |
| Cc1ccc(NC(=O)C(C)NC(=O)OCc2ccccc2)cc1C (centres undefined) | – | inconclusive [inhibitor, single point] |
| COc1ccc(C(O)c2nc(-c3ccc(C)c(C)c3)cs2)cc1 (centres undefined) | – | inconclusive [inhibitor, single point] |
| COc1ccccc1NC(=O)N1CCC(C(=O)c2ccc(Cl)cc2)CC1 | – | inconclusive [inhibitor, partial curve, poor fit] |
| Cc1ccc(NC(=O)Nc2ccon2)cc1Cl | – | inconclusive [inhibitor, single point] |
| COc1cccc(Oc2ccc(S(=O)(=O)N3CCCC3)cc2[N+](=O)[O-])c1 | – | inconclusive [inhibitor, single point] |
| Cc1cccn2cc(CCNS(=O)(=O)c3cccs3)nc12 | – | inconclusive [inhibitor, single point] |
| CCN(CC(=O)Nc1ccccc1OC)C(=O)c1cc(-c2ccccc2)nn1-c1ccccc1 | – | inconclusive [inhibitor, partial curve, poor fit] |
| COc1ccc([N+](=O)[O-])cc1CN1CCN(c2ncc(Cc3ccccc3)cn2)CC1 | – | inconclusive [inhibitor, partial curve, poor fit] |
| COC(=O)Cn1c(=NC(=O)c2ccc(OC)cc2)sc2cc(OC)ccc21 | inactive: 21.6% | – |
| C[C@H](CO)N1C[C@H](C)[C@@H](CN(C)S(=O)(=O)c2ccccc2)Oc2ccc(NC(=O)Nc3ccc(C(F)(F)F)cc3)cc2C1=O | – | inconclusive [inhibitor, partial curve, poor fit] |
| CCn1c(=O)n(CC)c2cc(N3CCCCC3)c(NC(=O)Nc3ccccc3Cl)cc21 | – | inconclusive [inhibitor, single point] |
| O=C(c1ccc(-c2ccc([N+](=O)[O-])cc2)o1)N1CCCC(C(F)(F)F)C1 (centres undefined) | – | inconclusive [inhibitor, single point] |
| COc1ccc(-c2nc3c4ccccc4ccn3c2Cc2cccc(Cl)c2)cc1OC | – | inconclusive [inhibitor, single point] |
| NC(=O)N/N=C/c1cn(-c2ccccc2)nc1-c1ccccc1 | inactive: 50.1% | – |

| Compound | activity change, negative = inhibition | Potency |
| --- | --- | --- |
| Cc1nc2ccccc2nc(C)c1=NOCc1ccccc1Cl | – | inconclusive [inhibitor, partial curve, poor fit] |
| CC(=O)Nc1cccc(C(=O)NC2CCCc3c2cnn3-c2ccc(C(C)(C)C)cc2)c1 (centres undefined) | – | inconclusive [inhibitor, partial curve, poor fit] |
| COc1ccccc1CC(=O)Nc1cc(Cl)ccc1O | – | inconclusive [inhibitor, single point] |
| CN(C)c1ccc(Sc2ccc3nc(N)nc(N)c3c2)cc1 | – | inconclusive [inhibitor, full curve, poor fit] |
| O=C(CCc1nc(-c2ccccc2F)no1)Nc1ccc(Oc2ccccc2)cc1 | – | inconclusive [inhibitor, partial curve, poor fit] |
| Cc1nn(Cc2ccccc2Cl)c(C)c1NC(=O)NC12CC3CC(CC(C3)C1)C2 | – | inconclusive [inhibitor, partial curve, poor fit] |
| CCNC(=S)N(Cc1cc2cc(C)cc(C)c2[nH]c1=O)C1CCCC1 | – | inconclusive [inhibitor, single point] |
| O=C(NC(=S)Nc1ccccc1Br)c1ccco1 | – | inconclusive [inhibitor, single point] |
| CCc1ccc(/C=C2\SC(=S)N(CCCC(=O)N3CCCC3)C2=O)cc1 | – | inconclusive [inhibitor, partial curve, poor fit] |
| Cc1ccc(-c2csc3ncnc(Cl)c23)cc1 | – | inconclusive [inhibitor, single point] |
| Cc1c(C(=O)N(Cc2ccccc2Cl)C2CCS(=O)(=O)C2)oc2ccccc12 (centres undefined) | – | active: 10 µM |
| CCOC(=O)C1=CN(Cc2cccc(F)c2)S(=O)(=O)NC1CCc1ccccc1 (centres undefined) | – | inconclusive [inhibitor, partial curve, poor fit] |
| COc1ccc(/C=N/Nc2cc(C)nc3ccccc23)cc1 | – | inconclusive [inhibitor, partial curve, poor fit] |
| COc1ccc(NC(=O)Cc2ccc(C)c(C)c2)cc1Cl | – | inconclusive [inhibitor, partial curve, poor fit] |
| Cc1ccc(S(=O)(=O)N(C)C[C@@H]2Oc3ncc(C#CCC(C)C)cc3C(=O)N([C@H](C)CO)C[C@H]2C)cc1 | – | inconclusive [inhibitor, partial curve, poor fit] |
| CCOC(=O)c1oc2c(c1C)-c1nn(Cc3ccc(Cl)cc3)cc1CC2 | – | inconclusive [inhibitor, single point] |
| CCc1c(C)sc2nc3c(C(=O)N4CCOCC4)cc(C(=O)c4ccccc4O)cn3c(=O)c12 | – | inconclusive [inhibitor, single point] |
| CCC(C)/C(C)=N/NC(=O)c1ccc(COc2ccc(Cl)c(C)c2)cc1 (centres undefined) | – | inconclusive [inhibitor, single point] |
| CCOC(=O)c1c(CN2CCC(C)CC2)oc2ccc(OC)cc12 | – | inconclusive [inhibitor, partial curve, poor fit] |
| Cc1ccc(/C=C2\CC(C)CC3=C2NC(=S)NC3c2ccc(C)cc2)cc1 (centres undefined) | – | inconclusive [inhibitor, single point] |

| Compound | activity change, negative = inhibition | Potency |
| --- | --- | --- |
| CCOC(=O)C1CCN(C(=O)c2cccc(S(=O)(=O)N3CCCc4ccccc43)c2)CC1 | – | inconclusive [inhibitor, single point] |
| O=C(CN1CCN(c2ccc(Cl)cc2)CC1)NCc1ccccc1 | – | inconclusive [inhibitor, single point] |
| COCCCN(C(=S)Nc1c(C)cc(C)cc1C)C(C)c1ccccn1 (centres undefined) | – | inconclusive [inhibitor, single point] |
| CC(=O)C1C(=O)c2c(cccc2[N+](=O)[O-])C1=Nc1ccc(S(N)(=O)=O)cc1 (centres undefined) | – | inconclusive [inhibitor, partial curve, poor fit] |
| OC[C@@H]1CN(Cc2ccccc2)C[C@H](n2cnc3c(N4CCN(c5ccccc5)CC4)ncnc32)O1 | – | inconclusive [inhibitor, single point] |
| Cc1cccc(OCC(O)CN2CCN(S(=O)(=O)c3ccc(C)cc3C)CC2)c1 (centres undefined) | – | inconclusive [inhibitor, partial curve] |
| COc1ccc(-c2nn(-c3ccccc3)cc2/C=N/O)cc1OC | – | inconclusive [inhibitor, partial curve, poor fit] |
| COc1ccc([N+](=O)[O-])cc1NCc1cccc([N+](=O)[O-])c1 | – | inconclusive [inhibitor, single point] |
| CCc1ccc(OCC(=O)N(Cc2ccc(Cl)cc2)C2CCS(=O)(=O)C2)cc1 (centres undefined) | – | inconclusive [inhibitor, single point] |
| O=C(Nc1ccccc1Br)C1CCCN(S(=O)(=O)c2cccc3nsnc23)C1 (centres undefined) | – | inconclusive [inhibitor, single point] |
| COc1cccc(N2CCN(S(=O)(=O)c3ccc4[nH]c5c(c4c3)CCCC5)CC2)c1 | – | inconclusive [inhibitor, single point] |
| CCCCOc1ccc(C(C)(O)CCN2CCOCC2)cc1 (centres undefined) | – | inconclusive [inhibitor, partial curve, poor fit] |
| Cc1ccc(OCC(O)CN2CCC(Cc3ccccc3)CC2)c(C)c1 (centres undefined) | – | inconclusive [inhibitor, partial curve, poor fit] |
| O=C(O)c1ccc(N/N=C/C=C/c2ccc([N+](=O)[O-])o2)cc1 | inactive: 11.1% | – |
| CCOC(=O)c1cccc(Nc2c3c(nc4ccccc24)CCC3)c1 | – | inconclusive [inhibitor, partial curve, poor fit] |
| Cc1cccc(NC(=O)c2c(NC(=O)C(F)(F)F)sc3c2CCCCC3)c1 | – | inconclusive [inhibitor, full curve, poor fit] |
| COc1ccc(C)cc1Nc1n[n+](-c2ccccc2)c(-c2ccc(SC)cc2)s1 | – | inconclusive [inhibitor, single point] |
| CC(C)c1ccc(NC(=O)Nc2nc(C(N)C(C)C)cs2)cc1 (centres undefined) | – | inconclusive [inhibitor, partial curve, poor fit] |
| COc1ccc(OCc2cc(C(=O)NC(C)c3cnn(C)c3)no2)c(Cl)c1 (centres undefined) | – | inconclusive [inhibitor, single point] |
